From the supplement of paper PMC10441789
The list shows a part of the results. Antibody binding of pooled human sera (four to six donors per pool; dilution not stated) to peptides of the Trypanosoma cruzi antigen TSSA on microarrays. Quantile-normalised fluorescence in arbitrary units, mean of duplicate arrays; higher = more binding. No active / inactive call. The uninfected pools are read here as the healthy donors of the same country. The strongest signals lie near the top of the scale (about 60,000).

Experiments:
Test in all cases: antibody binding signal (normalised fluorescence) (arbitrary fluorescence units); higher = stronger serum antibody binding to peptide
[1] = tested on: pooled sera of chronic Chagas disease patients, Argentina
Method: (§1)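 Microarray of 15-residue peptides over residues 30-55 of Trypanosoma cruzi TSSAII, each with 1 to 10 substitutions at naturally variable positions, probed with one serum pool per country.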

[2] = tested on: pooled sera of chronic Chagas disease patients, Bolivia
Method: as §1

[3] = tested on: pooled sera of chronic Chagas disease patients, Brazil
Method: as §1

[4] = tested on: pooled sera of chronic Chagas disease patients, Colombia
Method: as §1

[5] = tested on: pooled sera of chronic Chagas disease patients, Mexico
Method: as §1

[6] = tested on: pooled sera of chronic Chagas disease patients, USA
Method: as §1

[7] = tested on: pooled sera of uninfected people, Argentina
Method: as §1

[8] = tested on: pooled sera of uninfected people, Bolivia
Method: as §1

[9] = tested on: pooled sera of uninfected people, Brazil
Method: as §1

[10] = tested on: pooled sera of uninfected people, Colombia
Method: as §1

[11] = tested on: pooled sera of uninfected people, Mexico
Method: as §1

[12] = tested on: pooled sera of uninfected people, USA
Method: as §1

Row | Sequence | antibody binding signal [1] | antibody binding signal [2] | antibody binding signal [3] | antibody binding signal [4] | antibody binding signal [5] | antibody binding signal [6] | antibody binding signal [7] | antibody binding signal [8] | antibody binding signal [9] | antibody binding signal [10] | antibody binding signal [11] | antibody binding signal [12]
1 | GTDKKAAAGEAPSQS | 490 | 4080 | 10700 | 2660 | 606 | 11600 | 106 | 359 | 99.6 | 91.7 | 238 | 125
2 | ENKPATGGTPSQPGA | 1060 | 3210 | 18600 | 908 | 965 | 2630 | 462 | 596 | 497 | 391 | 697 | 243
3 | SGKDNKPAAGEAPSP | 1330 | 860 | 26400 | 937 | 706 | 13800 | 404 | 635 | 142 | 366 | 351 | 92.8
4 | NKTAAGGAPSPSGAS | 336 | 470 | 5560 | 6660 | 1230 | 801 | 874 | 1050 | 457 | 327 | 342 | 1350
5 | KEKKPATGEAPSQPG | 40600 | 11600 | 43100 | 173 | 221 | 30500 | 724 | 242 | 158 | 166 | 99.7 | 369
6 | GKEKKPATGETPSPS | 27900 | 3070 | 18800 | 3170 | 5820 | 20800 | 166 | 172 | 93.9 | 118 | 610 | 893
7 | STPPSGTDNKPATGG | 50800 | 46300 | 50300 | 8600 | 30600 | 43300 | 1590 | 1340 | 872 | 430 | 1350 | 655
8 | PSGTENKAATGGAPS | 48100 | 21800 | 43400 | 3550 | 4010 | 10900 | 1450 | 532 | 555 | 486 | 683 | 305
9 | GKEKKTAAGGTPSQS | 785 | 278 | 206 | 4160 | 758 | 1820 | 171 | 93.5 | 299 | 117 | 237 | 124
10 | TENKTAAGGTPSQPG | 25000 | 544 | 792 | 4400 | 329 | 1580 | 455 | 174 | 924 | 295 | 2490 | 164
11 | PSGTENKPATGGAPS | 53100 | 34100 | 47700 | 3210 | 5070 | 15600 | 2150 | 3120 | 1190 | 576 | 767 | 707
12 | KEKKTATGGAPSQPG | 493 | 201 | 253 | 775 | 315 | 319 | 232 | 90 | 114 | 109 | 125 | 101
13 | GTENKTAAGEAPSQP | 29800 | 23400 | 39800 | 694 | 960 | 8310 | 196 | 384 | 195 | 225 | 190 | 124
14 | SGTDNKPAAGETPSP | 4860 | 1030 | 43700 | 2670 | 281 | 2970 | 123 | 650 | 287 | 253 | 325 | 531
15 | GKENKPAAGGAPSQS | 1150 | 554 | 4880 | 2140 | 3560 | 6650 | 903 | 181 | 139 | 164 | 168 | 168
16 | TDNKPAAGETPSPPG | 1330 | 252 | 20300 | 378 | 178 | 4520 | 99.4 | 365 | 191 | 152 | 275 | 1070
17 | KAAAGEAPSPPGASS | 608 | 280 | 11100 | 350 | 229 | 7220 | 269 | 198 | 146 | 121 | 114 | 210
18 | TDKKTATGETPSQPG | 1170 | 2840 | 30300 | 399 | 242 | 7230 | 256 | 437 | 433 | 211 | 245 | 223
19 | TDNKTATGETPSQSG | 643 | 1520 | 7130 | 232 | 241 | 7610 | 100 | 384 | 262 | 127 | 220 | 117
20 | GKDKKTATGEAPSQP | 6390 | 3590 | 26000 | 720 | 842 | 13300 | 165 | 80.5 | 87.6 | 80.1 | 105 | 89.8
21 | GTENKTATGGAPSQP | 35100 | 2520 | 6230 | 2200 | 2580 | 1990 | 383 | 418 | 284 | 224 | 525 | 153
22 | SGKENKAATGEAPSP | 29000 | 27400 | 36300 | 1870 | 2500 | 24200 | 8320 | 3520 | 140 | 608 | 459 | 271
23 | TPPSGTDKKPATGET | 25600 | 32200 | 43500 | 8430 | 31400 | 5150 | 572 | 467 | 464 | 355 | 5670 | 1600
24 | SGKDKKAATGGAPSQ | 588 | 256 | 627 | 876 | 1050 | 1060 | 220 | 270 | 81.2 | 204 | 84.5 | 83.5
25 | SGTEKKTAAGGAPSP | 423 | 217 | 661 | 9270 | 1500 | 1510 | 189 | 388 | 147 | 214 | 293 | 167

Row | Sequence | antibody binding signal [1] | antibody binding signal [2] | antibody binding signal [3] | antibody binding signal [4] | antibody binding signal [5] | antibody binding signal [6] | antibody binding signal [7] | antibody binding signal [8] | antibody binding signal [9] | antibody binding signal [10] | antibody binding signal [11] | antibody binding signal [12]
26 | PPSGKDKKAAAGGAP | 1120 | 384 | 712 | 2450 | 28500 | 1560 | 211 | 532 | 120 | 322 | 108 | 155
27 | EKKTAAGEAPSQSGA | 617 | 5120 | 4070 | 704 | 558 | 6460 | 178 | 1350 | 137 | 1180 | 249 | 1160
28 | TSSTPPSGKDNKPAT | 18000 | 25700 | 31000 | 685 | 23000 | 12300 | 480 | 1060 | 198 | 254 | 185 | 277
29 | GTENKPAAGEAPSQP | 41800 | 26700 | 44300 | 3430 | 6880 | 16400 | 311 | 1360 | 274 | 124 | 134 | 102
30 | KEKKPATGEAPSPPG | 39300 | 10400 | 41300 | 157 | 216 | 29200 | 804 | 177 | 150 | 145 | 101 | 388
31 | TENKAAAGEAPSPSG | 34900 | 1200 | 16900 | 228 | 199 | 11500 | 141 | 128 | 130 | 68 | 81.3 | 150
32 | PPSGKDKKTAAGGAP | 932 | 393 | 646 | 4530 | 25900 | 1570 | 215 | 456 | 114 | 270 | 120 | 196
33 | TENKPATGGTPSPSG | 47000 | 1480 | 2810 | 237 | 1170 | 445 | 369 | 733 | 352 | 406 | 323 | 214
34 | GKENKTAAGGTPSQP | 1290 | 246 | 2950 | 4090 | 2120 | 8990 | 534 | 86.8 | 205 | 116 | 949 | 143
35 | GKENKTAAGGAPSQP | 928 | 320 | 4260 | 4530 | 2220 | 8240 | 328 | 99.5 | 127 | 124 | 141 | 136
36 | PSGKEKKTATGGAPS | 7830 | 2150 | 5180 | 9070 | 9150 | 6260 | 358 | 309 | 265 | 117 | 173 | 137
37 | GKDNKPATGGAPSPS | 1590 | 2010 | 3020 | 1660 | 2740 | 3640 | 340 | 1090 | 120 | 170 | 138 | 128
38 | TISTPPSGKENKTAT | 17900 | 11800 | 10600 | 1630 | 4530 | 2550 | 2660 | 1430 | 326 | 667 | 391 | 486
39 | KENKTATGEAPSQSG | 15300 | 10200 | 22000 | 619 | 709 | 22000 | 249 | 141 | 168 | 156 | 157 | 110
40 | PSGKDKKAAAGEAPS | 3830 | 894 | 3080 | 7020 | 5990 | 8600 | 172 | 386 | 78.7 | 107 | 85.5 | 85.2
41 | KTAAGGAPSPPGASS | 157 | 215 | 585 | 7200 | 872 | 642 | 274 | 122 | 114 | 99 | 89.8 | 171
42 | EKKPATGGTPSQPGA | 1010 | 692 | 2620 | 2420 | 655 | 795 | 523 | 777 | 1160 | 496 | 479 | 717
43 | KAATGGAPSPSGASS | 621 | 247 | 406 | 359 | 1870 | 539 | 364 | 140 | 101 | 99.5 | 91.2 | 233
44 | GTDKKPAAGETPSQP | 393 | 2710 | 34600 | 6330 | 469 | 2580 | 150 | 329 | 214 | 533 | 655 | 125
45 | SGTENKPAAGGAPSP | 45200 | 18700 | 34900 | 1520 | 1310 | 8260 | 569 | 1500 | 355 | 293 | 322 | 165
46 | DKKPAAGGAPSPPGA | 502 | 266 | 630 | 4970 | 404 | 1310 | 272 | 232 | 463 | 176 | 120 | 220
47 | TENKPATGEAPSPSG | 45000 | 48500 | 51900 | 260 | 636 | 40700 | 972 | 671 | 387 | 102 | 170 | 169
48 | KEKKAAAGGTPSQSG | 174 | 204 | 152 | 1560 | 166 | 1340 | 117 | 83.7 | 575 | 108 | 89.2 | 97
49 | KENKAAAGGTPSQPG | 170 | 198 | 481 | 988 | 145 | 1290 | 212 | 81.1 | 638 | 152 | 185 | 84.1
50 | KTAAGEAPSPPGASS | 457 | 380 | 1890 | 335 | 1210 | 4540 | 241 | 187 | 179 | 128 | 94.8 | 181
